# According to PubChem BioAssay AID493208 (National Center for Advancing Translational Sciences (NCATS), 2011):
# Among all 44,000 compounds or so, about 340 (0.77%) were called active. Not shown: some 5% with an inconclusive outcome. The call rests on the fitted dose curve; in most records, active means well fitted inhibition curve with a large enough effect; inconclusive means small, poorly fitted or top-dose-only effect; inactive means flat fitted curve, though single readings scatter. The list shows a part of the results.
# Assay: Acumen qHTS Assay for Inhibitors of the mTORC1 Signaling Pathway in MEF (Tsc2-/-, p53-/-) Cells: Sytravon; further: nearly all actives have a fitted effect of over 50% in size;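 on activity change, negative = inhibition: plate controls were DMSO for no effect and rapamycin for full effect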
# Settings: phospho-rpS6 immunofluorescence/PI, 24 h; series mostly up to 38.3 µM; activity change, negative = inhibition: at the top concentration
# How it was run: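 Plate MEFs (Tsc2-/-, p53-/-, empty vector) in DMEM/10% FBS; after 24 h add compound, incubate 24 h at 37 degree Celsius; fix in PFA/TX-100, block, stain phospho-rpS6 and 10 uM PI; scan at 488 nm; report % positive cells.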
# Potency means the concentration at half of the fitted maximal effect.
SMILES,"activity change, negative = inhibition",Potency
CCOC(=O)c1cn(CC(=O)Nc2ccc(OC)cc2OC)nn1,inactive: -2.97%,–
Fc1ccc(Nc2ncnc3onc(-c4ccc(Cl)cc4)c23)cc1Cl,inactive: -8.98%,–
CCOc1ccc(CCNC(=O)c2ccc3c(c2)N(Cc2ccc(C)cc2)CCS3)cc1,inactive: -0.996%,–
O=C(C1CCCN(S(=O)(=O)c2ccc(Br)s2)C1)N1CCN(c2ccccc2F)CC1 (stereo not given),inactive: -8.63%,–
CCN(CC)CCCNc1sc(S(=O)(=O)c2ccccc2)nc1S(=O)(=O)c1ccc(Cl)cc1,–,active: 9.27 µM
CCOC(=O)c1c(C)[nH]c(CCC(=O)NC(C)c2ccccc2)c1C (stereo not given),inactive: 1.56%,–
COc1ccc(C)cc1NC(=O)NC(C)c1c(-n2cccc2)sc(C)c1C (stereo not given),inactive: -1.97%,–
CCN(C(=O)c1sc2nc3n(c(=O)c2c1C)CCCCC3)c1ccc(OC)cc1,inactive: 3.05%,–
Cc1ccc(Cl)cc1NC(=O)Cn1c(=O)n(CCC(=O)NCc2ccc3c(c2)OCO3)c(=O)c2sccc21,inactive: -1.02%,–
CCCC(=O)Nc1nnc(S(=O)(=O)N2CCCCCC2)s1,inactive: 3.08%,–
COC(=O)C(NC(=O)CCc1c(C)nc2c(-c3ccccc3)c(C)nn2c1C)C(C)C (stereo not given),inactive: -9.33%,–
COc1ccc(C2C(C(=O)Nc3ccccc3)=C(C)Nc3nc(SCC(=O)c4ccc(C)cc4)nn32)cc1 (stereo not given),inactive: -5.61%,–
CC1=C(c2ccc(F)cc2)S(=O)(=O)N=C1N1CCC(C(=O)NCCc2ccccc2C)CC1,inactive: -5.5%,–
Cc1c(C(=O)Nc2ccc(-n3c(C)nc4ccccc4c3=O)cc2)cccc1[N+](=O)[O-],inactive: -0.303%,–
CC(C)Cc1ccc(S(=O)(=O)N2CCN(Cc3noc(CCC(=O)N4CCCCC4)n3)CC2)cc1,inactive: -11.1%,–
CCOc1cc2c(cc1OCC)C(CC(=O)O)N(C(=O)Nc1ccccc1C(F)(F)F)CC2 (stereo not given),inactive: 11.2%,–
Cc1cc(C)nc(-n2nc(C)c3c2NC(=O)CC3c2cccc(O)c2)n1 (stereo not given),inactive: -2.01%,–
Cc1cc2nn(-c3ccc(F)cc3)nc2cc1NC(=O)c1cccc2c(Cl)cccc12,inactive: -3.18%,–
CCOC(=O)c1ccc2c(c1)N(Cc1ccc(F)cc1Cl)C(=O)c1ccccc1S2(=O)=O,inactive: 0.258%,–
CCn1c(C)c(C)c2cc(C(=O)NCc3ccc(F)cc3)ccc21,inactive: 1.36%,–

SMILES,"activity change, negative = inhibition",Potency
Cc1noc(-c2ccc(NC(C)c3ccccc3)c([N+](=O)[O-])c2)n1 (stereo not given),inactive: 4.73%,–
CCOC(=O)CC(=O)CSc1nc2ccsc2c(=O)n1Cc1ccccc1,inactive: -9.59%,–
CCC(=O)N1CCc2cc(Br)cc(S(=O)(=O)N3CCN(c4ccccc4OC)CC3)c21,inactive: -1.6%,–
Cc1ccc(CNC(=O)c2nc(SCc3ccccc3C)ncc2Cl)cc1,inactive: -3.38%,–
CC1(c2ccccc2)CC(C)(C)N(C(=O)c2cccc(Cl)c2)c2ccccc21 (stereo not given),inactive: 6.47%,–
COc1ccccc1NC(=O)c1ccc(CN2C(=O)C(C)=C(c3ccc(C)c(C)c3)S2(=O)=O)cc1,inactive: -10.8%,–
Cc1ccc(CNC(=O)c2ccc(CSCc3cccc(C)c3)o2)cc1,inactive: 10.6%,–
Cc1cc(C)cc(-n2c(SCC(=O)N3CCOCC3)nc3c([nH]c4ccccc43)c2=O)c1,inactive: -0.524%,–
Cc1ccc(C)c(OCCn2c(CCNC(=O)C3CCCCC3)nc3ccccc32)c1,inactive: -4.27%,–
Cc1ccc(CCNS(=O)(=O)c2c(C)nc3sc(C)c(C)n3c2=O)cc1,inactive: -3.46%,–
COc1cccc(-c2nnc(-c3ccccc3NC(=O)c3ccc(F)cc3F)o2)c1,inactive: 1.5%,–
Cc1nc2ccn(Cc3cccs3)c(=O)c2cc1C(=O)N1CCN(c2ccccc2F)CC1,inactive: -8.09%,–
O=C1C(=O)N(C2CCN(C(=O)c3ccccc3Cl)CC2)CCN1Cc1ccc(F)cc1,inactive: 5.86%,–
COc1cccc(NC(=O)c2ccc3c(c2)CCN3S(C)(=O)=O)c1,inactive: 4.01%,–
CC1CCN(S(=O)(=O)c2ccc3c(c2)N(CC(=O)NCCc2ccccc2)C(=O)CO3)CC1,inactive: 1.56%,–
COc1ccc(C2=CC(c3ccccc3Cl)n3nc(-c4ccc(Cl)cc4)nc3N2)cc1 (stereo not given),inactive: 1.86%,–
COC(=O)c1scc(-c2ccc(C)cc2)c1S(=O)(=O)N1CCN(c2ccc(C(C)=O)cc2)CC1,inactive: 2.23%,–
Cc1ccc(Cl)cc1N1CCN(C(=O)Cn2cnc3sc(C)c(S(=O)(=O)N4CCC(C)CC4)c3c2=O)CC1,inactive: -29.3%,–
COc1ccccc1CNC(=O)CCS(=O)(=O)c1ccc2c(c1)CCN2C(C)=O,inactive: 1.94%,–
Cc1nc2nc(NCc3ccc(Cl)cc3)[nH]n2c(=O)c1Cc1ccccc1,inactive: 0.556%,–

SMILES,"activity change, negative = inhibition",Potency
CCCn1c(CCC(=O)Nc2ccc(OCC)cc2)nc2cccnc21,inactive: 9.19%,–
CC1CCc2c(sc(NC(=O)C3c4ccccc4Oc4ccccc43)c2C#N)C1 (stereo not given),inactive: 2.97%,–
Cc1ccc(-n2c(=O)c3c(C)c(C)sc3n(CC(=O)NCc3ccccc3)c2=O)cc1C,inactive: -13.3%,–
CCOC(=O)c1c(C)oc2nc(C)nc(NCc3ccc(F)cc3)c12,inactive: -4.37%,–
COc1ccc(C(=O)Nc2nnc(SCc3cc(=O)c4cc(C)cc(C)c4[nH]3)s2)cc1,inactive: -9.23%,–
Cc1ccc(CNC(=O)CCCn2c(=O)c3ccccc3n(CC(=O)Nc3ccc(C)c(C)c3)c2=O)cc1,inactive: 1.04%,–
CCOc1ccc(CCNC(=O)CCCn2c(=O)c3cccn3c3ccccc32)cc1,inactive: 5%,–
Cc1ccc(-n2ncc3c(NCCC4=CCCCC4)ncnc32)cc1,inactive: 11.5%,–
COC(=O)NCC(c1cccnc1)N1CCN(c2ccc(F)cc2)CC1 (stereo not given),inactive: -7.29%,–
Cc1ccc(Cl)cc1NC(=O)C(C)n1nc(-c2ccccc2)ccc1=O (stereo not given),inactive: 3.97%,–
Cn1c(=O)c2c(nc(SCC(=O)Nc3ccccc3F)n2Cc2ccc(Cl)cc2)n(C)c1=O,inactive: 3.77%,–
COc1ccccc1N1CCN(S(=O)(=O)c2c(C)sc3ncn(CC(=O)N(C)c4ccc(Cl)cc4)c(=O)c23)CC1,inactive: -3.71%,–
CCNC(=O)c1c(NC(=O)Cc2coc3cc(C)cc(C)c23)sc2c1CCCC2,inactive: 2.32%,–
Oc1c(C(c2ccccc2F)N2CCN(Cc3ccccc3)CC2)sc2nc(-c3ccco3)nn12 (stereo not given),inactive: 0.166%,–
Cc1c(C(=O)N2CCC(c3nc4ccccc4s3)CC2)oc2ccc(Cl)cc12,inactive: 0.318%,–
Cc1ccc(Cl)cc1NC(=O)Cn1c(=O)oc2cc(S(=O)(=O)N3CCCC3)ccc21,inactive: -6.85%,–
Cc1ccc2c(CC(=O)Nc3ccc(S(=O)(=O)N4CCCCC4)cc3)coc2c1,inactive: -0.693%,–
Cc1cc(C)c2c(=O)nc(SCc3ccccc3C)n(C3CC3)c2n1,inactive: 0%,–
Cc1ccc(NC(=O)c2cc(-c3ccc(Br)s3)nc3ccccc23)cc1F,inactive: -9.11%,–
CCOc1ccccc1N(C)C(=O)C1CCCN(c2ncnc3c2nc2n3CCCCC2)C1 (stereo not given),inactive: -18.3%,–
